# Laboratory results from PubChem BioAssay AID686979 (National Center for Advancing Translational Sciences (NCATS), 2013).
# Values joined by “and” are separate entries in the source; they are usually repeats but may differ in a detail not shown here. Equal values may be shown once. About 50,000 (12%) of roughly 420,000 compounds were called active. The shares of active, inactive and inconclusive entries below differ from those in the screen. The call rests on the fitted dose curve; in most records, active means well fitted inhibition curve with a large enough effect; inconclusive means small, poorly fitted or top-dose-only effect; inactive means flat fitted curve, though single readings scatter. Potencies beside an inconclusive call are fits to weak or partial responses and may not hold up.
# Assay: qHTS for Inhibitors of human tyrosyl-DNA phosphodiesterase 1 (TDP1): qHTS in cells in presence of CPT; further: nearly all actives have a fitted effect of over 55% in size
# Details: chicken DT40 Tdp1-/-;hTDP1 cells + 20 nM CPT, ATP luminescence, 48 h; activity change, negative = growth inhibition: at 46.2 µM (top of the series)
# Outline: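 Chicken DT40 Tdp1-/- cells stably complemented with human TDP1 were seeded at 400 cells/well in medium containing 20 nM camptothecin, exposed to pin-transferred compounds, and grown at 37 °C for at least 48 hr. Viability was read as ATP luminescence.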
# On the % scale 0 is the no-effect control and ±100 the full control effect; potency means the concentration at half of the fitted maximal effect; tags describe the fitted curve by direction and shape.
Structure (SMILES),Potency,"activity change, negative = growth inhibition"
O=C(NN1C(=O)/C(=C/c2ccc(O)c(O)c2)SC1=S)c1ccccc1,"inconclusive: 25.9 µM [inhibitor, single point]",–
COC(=O)[C@]12CCCCC=C1N(Cc1cccc3ccccc13)C(=O)[C@H](CC(=O)N1CCCCC1)C2,"inconclusive: 18.4 µM [inhibitor, single point]",–
CN(c1ccc(C(=O)Nc2ccccc2Sc2ccccc2)cc1)S(C)(=O)=O,"inconclusive: 29.1 µM [inhibitor, single point]",–
O=[N+]([O-])c1cc(S(=O)(=O)c2ccc(N3CCCCC3)c([N+](=O)[O-])c2)ccc1N1CCCCC1,"inconclusive: 5.8 µM [inhibitor, partial curve]",–
CN(Cc1ccccc1)C(=O)c1cccc(NC(=O)Cc2cccc([N+](=O)[O-])c2)c1,"inconclusive: 29.1 µM [inhibitor, single point]",–
COc1ccc(C2=CC3=C(Br)C(=O)C(C)(OC(=O)c4ccc(Cl)nc4)C(=O)C3=CO2)cc1 (configuration not stated),–,inconclusive: -11.6% [inhibitor]
Cc1cccc(C(=O)NCC(=O)N2CCN(c3ccccn3)CC2)c1,–,inactive: 11.9%
COc1ccc(-c2ccc3c(c2)[C@@H]2C[C@H]4[C@@H](C(=O)N2CC3)[C@H](C)ON4C)cc1,"inconclusive: 25.9 µM [inhibitor, single point]",–
O=[N+]([O-])c1ccc(Nc2cccc3c2[nH]c2c(-c4ccccc4)nccc23)c([N+](=O)[O-])c1,"inconclusive: 29.1 µM [inhibitor, single point]",–
C=CCNc1oc(-c2ccc(OCC)cc2)nc1C#N,"inconclusive: 18.4 µM [inhibitor, partial curve, poor fit]",–
Cc1ccc2c(c1)N(C(=O)CCC(=O)N1CCC(C(N)=O)CC1)CC(C)O2 (configuration not stated),active: 25.9 µM,–
Cc1ccc(NC(=O)COC(=O)CCc2c(C)nc3ncnn3c2C)cc1,–,inactive: 23.6%
O=C(NCCOc1ccccc1Cl)C(=O)Nc1ccccc1,active: 20.6 µM,–
O=C(Nc1ccn(CCCNCCc2ccccn2)c(=O)n1)OCc1ccccc1,–,inactive: 0.0629%
O=S(=O)(Nc1ccc2c(c1)OCO2)c1ccc(Br)s1,"inconclusive: 29.1 µM [inhibitor, single point]",–
C[N+]1(C)CCC(=C2c3ccccc3CC(=O)c3sccc32)CC1,active: 25.9 µM,–
Cc1ccc(C)c(N2CCN(C(=O)CCc3nc(-c4ccccc4)no3)CC2)c1,"inconclusive: 29.1 µM [inhibitor, single point]",–
COc1cc(OC)c(C(=O)Nc2ccc(C(=O)c3ccccc3)cc2)cc1OC,"inconclusive: 25.9 µM [inhibitor, single point]",–
CCC(=O)NC(=S)Nc1cccc(NC(=O)c2ccc(Cl)cc2Cl)c1,"inconclusive: 29.1 µM [inhibitor, single point]",–
Cc1cccc(C)c1NC(=S)N(CCN1CCCCCC1)Cc1ccco1,"inconclusive: 20.6 µM [inhibitor, single point]",–
C[C@H](NC(=O)c1nc[nH]c1C(=O)N1CCN(c2ccccc2)CC1)C(=O)OCc1ccccc1,active: 18.4 µM,–
CSc1oc(-c2ccccc2)nc1S(=O)(=O)c1ccc(C)cc1,"inconclusive: 25.9 µM [inhibitor, single point]",–
Cc1cc(Cn2nnc(-c3ccc(Br)cc3)n2)cc(C)c1O,"inconclusive: 25.9 µM [inhibitor, single point]",–
Cn1ccnc1CC(O)(c1ccccc1)c1ccccc1,–,inactive: -20.3%

Structure (SMILES),Potency,"activity change, negative = growth inhibition"
O=C(CNC(=O)c1ccccc1F)NCCOc1ccccc1Cl,–,inactive: -8.51%
C/C(=N\NC(=O)C(N)=O)c1ccc(O)cc1O,"inconclusive: 29.1 µM [inhibitor, partial curve, poor fit]",–
COc1cccc(/C=N/NC(=O)c2ccc(-c3ccccc3)cc2)c1O,active: 5.17 µM,–
COCCCn1c(=O)c2sccc2n2c(CCCC(=O)Nc3cccc(C(F)(F)F)c3)nnc12,active: 16.4 µM,–
COc1ccc(C(=O)c2ccccc2)c(OCC(=O)N(C)C)c1,–,inactive: -5.97%
COc1cc(C(=O)NCCC2=CCCCC2)cc(OC)c1OC,"inconclusive: 16.4 µM [inhibitor, single point]",–
Cc1cccc(CCN2C(N(C)C)=NC[C@@H]2C)c1,"inconclusive: 29.1 µM [inhibitor, single point]",–
CCCn1cc(NC(=O)c2cc(-c3ccccc3)on2)cn1,"inconclusive: 16.4 µM [inhibitor, single point]",–
Cc1nc2c(=O)n(C)c(=O)[nH]c2n1Cc1ccccc1,–,inactive: -4.83%
Cc1nc2ccccc2n1CCc1ccccc1,"inconclusive: 29.1 µM [inhibitor, single point]",–
Cc1csc(=O)n1CCC(=O)OCC(=O)Nc1ccc(S(N)(=O)=O)cc1,–,inactive: -26.6%
CC1=CC(C)(C)[N+](C)=CN1c1ccccc1,–,inactive: -4.63%
CCOc1ccc(S(=O)(=O)N2CN3CCN(C3)C2)cc1,"inconclusive: 23.1 µM [inhibitor, single point]",–
CCN(CC)CCn1c2c(c(SCC(=O)Nc3cc(C)cc(C)c3)nc1=O)CCC2,–,inactive: 2.45%
CCOC(=O)/C(=N\Nc1ccc(C(C)=O)cc1)c1csc(Nc2ccccc2)n1,"inconclusive: 10.3 µM [inhibitor, partial curve]",–
CCOC(=O)c1cccc(NC(=O)c2ccc3nc(CCc4ccccc4)oc3c2)c1,"inconclusive: 18.4 µM [inhibitor, single point]",–
Cc1ccc(-n2nnnc2SCC(=O)N2c3ccccc3NC(=O)C2(C)C)cc1,"inconclusive: 16.4 µM [inhibitor, partial curve]",–
COc1cc(C=Nc2ccccc2C(=O)Nc2ccccc2)cc(OC)c1OC,–,inactive: 5.03%
COc1ccc(S(=O)(=O)N(C)C)cc1NCC(=O)Nc1ccc(Br)c(C)c1,"inconclusive: 32.6 µM [inhibitor, single point]",–
C=CCc1cccc(/C=N/NC(=O)COc2ccc(-n3cnnn3)cc2)c1O,"inconclusive: 23.1 µM [inhibitor, single point]",–
CCOC(=O)C(C)(C)Sc1nc2c(cnn2-c2ccc(Cl)cc2)c(=O)[nH]1,"inconclusive: 18.4 µM [inhibitor, partial curve, poor fit]",–
COCc1c(C(=O)N2CCN(CCOc3ccccc3)CC2)oc2ccccc12,"inconclusive: 9.2 µM [inhibitor, partial curve]",–
CN(CCOc1ccccc1)c1ccc(S(=O)(=O)N2CCCCC2)cn1,"inconclusive: 23.1 µM [inhibitor, single point]",–
COc1ccc(CC(=O)Nc2ccc(S(=O)(=O)N(C)C3CCN(C)CC3)cc2)cc1,"inconclusive: 23.1 µM [inhibitor, single point]",–

Structure (SMILES),Potency,"activity change, negative = growth inhibition"
CCOC(=O)C1=C(CC)Nc2ccccc2N=C1NC(=O)c1cccc(S(=O)(=O)N2CCOCC2)c1,–,inactive: -14.2%
CCC1CCC(N2CCN(c3ccc([N+](=O)[O-])cc3)CC2)CC1 (configuration not stated),"inconclusive: 5.17 µM [inhibitor, single point]",–
Cc1cc(C)nc(N/N=C/c2ccc(N3CCOCC3)cc2)n1,–,inconclusive: -10.4% [inhibitor]
CN1C=CC=C/C1=C1\SC(=S)N(N)C1=O,–,inactive: 6.77%
COc1ccc(Br)c(C(=O)N2CCCC2(C)C(=O)NCC(C)C)c1 (configuration not stated),"inconclusive: 23.1 µM [inhibitor, partial curve, poor fit]",–
CC(C)C1Oc2cc3oc(=O)ccc3cc2C1=O (configuration not stated),–,inactive: -21.3%
CC1(Oc2cccc(F)c2)CCN(Cc2ccccc2OC(F)F)C1 (configuration not stated),"inconclusive: 14.6 µM [inhibitor, partial curve, poor fit]",–
CCOC(=O)C(=CNc1ccc2c(c1)CCN2C(C)=O)C(=O)OCC,active: 20.6 µM,–
CCCCN(CC)CCNC(=O)c1cc2c(=O)[nH]c3ccccc3c2s1,"inconclusive: 25.9 µM [inhibitor, single point]",–
O=C(NCCO)C(=O)Nc1cc2c3c(c1)CC(=O)N3CCC2,–,inactive: -3.85%
COc1ccc(S(N)(=O)=O)cc1C(=O)NNC(=O)C1COc2ccccc2O1 (configuration not stated),–,inactive: -11.7%
OC1(C#Cc2c(-c3ccsc3)oc3ccc(N4CCOCC4)cc23)CCCCC1,"inconclusive: 29.1 µM [inhibitor, single point]",–
CN1c2ccccc2C(=O)/C(=C\Nc2ccc(F)cc2)S1(=O)=O,–,inactive: -14.6%
CCCN1CCc2c(sc3nc(SC)n(-c4ccccc4)c(=O)c23)C1,active: 6.51 µM,–
Nc1nc(SCc2cccc(Br)c2)n[nH]1,–,inactive: -13.6%
Cc1ccc(C2CC(C(F)(F)F)n3ncc(C(=O)NCc4ccco4)c3N2)cc1 (configuration not stated),–,inactive: -27.9%
CC(C)(C)C(=O)Nc1cccc(-c2nc3ccccc3c(=O)o2)c1,–,inactive: -15.8%
COC(=O)c1ccc(N2CCCCC2)c(NC(=O)c2ccco2)c1,"inconclusive: 23.1 µM [inhibitor, single point]",–
CN(CC(=O)Nc1ccc(Cl)c(Cl)c1)C1CCCCC1,"inconclusive: 20.6 µM [inhibitor, single point]",–
Cc1ccccc1OCC(=O)Nc1ccc2nc(SCC(N)=O)sc2c1,"inconclusive: 20.6 µM [inhibitor, single point]",–
CCCc1cc(NCCOCCO)n2c(nc3ccccc32)c1C#N,"inconclusive: 16.4 µM [inhibitor, single point]",–
O=C(CCl)N1CCN(S(=O)(=O)c2ccc3c(c2)CCC3)CC1,active: 2.31 µM,–
NC(=O)c1cccnc1Oc1ccc(Cl)cc1Cl,"inconclusive: 29.1 µM [inhibitor, single point]",–
CC1=C(C(=O)Nc2ccccc2)C(c2ccc[nH]2)n2ncnc2N1 (configuration not stated),"inconclusive: 25.1 µM [inhibitor, single point] and inconclusive: 20.6 µM [inhibitor, single point]",–
